Read-outs that look alike come from different tables or passages of the source.
Test system: B. subtilis cells

Row | Compound | cell wall disruption (FM 4-64 dye aggregation) (B. subtilis cells, FIG. 1C) | cell wall disruption (FM 4-64 dye aggregation)
1 | CC[C@H](C)[C@H](NC(=O)CN)C(=O)NCC(=O)N[C@@H](C)C(=O)N[C@H](C(=O)N[C@@H](CC(C)C)C(=O)N[C@@H](CCCCN)C(=O)N[C@H](C(=O)N[C@@H](CC(C)C)C(=O)N[C@H](C(=O)N[C@H](C(=O)NCC(=O)N[C@@H](CC(C)C)C(=O)N1CCC[C@H]1C(=O)N[C@@H](C)C(=O)N[C@@H](CC(C)C)C(=O)N[C@H](C(=O)N[C@@H](CO)C(=O)N[C@@H](Cc1c[nH]c2ccccc12)C(=O)N[C@H](C(=O)N[C@@H](CCCCN)C(=O)N[C@@H](CCCNC(=N)N)C(=O)N[C@@H](CCCCN)C(=O)N[C@@H](CCCNC(=N)N)C(=O)N[C@@H](CCC(N)=O)C(=O)N[C@@H](CCC(N)=O)C(N)=O)[C@@H](C)CC)[C@@H](C)CC)[C@@H](C)O)[C@@H](C)O)C(C)C)C(C)C [melittin, reference compound] | aggregation and cell wall disruption | 
2 | Brc1ccc2[nH]cc(Sc3ccccc3Br)c2c1 [Compound 174I, 5-bromo-3-((2-bromophenyl)thio)-1H-indole] |  | aggregation and cell wall disruption

From patent US20250382269A1 (CFD Research Corporation, priority 2019, published 2025)
